Test results taken from PubChem BioAssay AID588591 (National Center for Advancing Translational Sciences (NCATS), 2011).
Among all 390,000 compounds or so, about 4,700 (1.2%) were called active. The inconclusive results got no clear call from the source; some entries with a clear call stand among them for comparison. The call rests on the fitted dose curve; in most records, active means well fitted inhibition curve with a large enough effect; inconclusive means small, poorly fitted or top-dose-only effect, or another doubt; inactive means no such curve, though single readings can be large or run the other way. Potencies beside an inconclusive call are fits to weak or partial responses and may not hold up.

The molecules below were run against DNA polymerase eta (Homo sapiens) (UniProt Q9Y253) (assay: qHTS for Inhibitors of Polymerase Eta). Details: recombinant Pol eta, fluorescent DNA replication assay; series mostly up to 114 µM.
UniProt Q9Y253, sequence (Q9Y253 whole entry, looked up): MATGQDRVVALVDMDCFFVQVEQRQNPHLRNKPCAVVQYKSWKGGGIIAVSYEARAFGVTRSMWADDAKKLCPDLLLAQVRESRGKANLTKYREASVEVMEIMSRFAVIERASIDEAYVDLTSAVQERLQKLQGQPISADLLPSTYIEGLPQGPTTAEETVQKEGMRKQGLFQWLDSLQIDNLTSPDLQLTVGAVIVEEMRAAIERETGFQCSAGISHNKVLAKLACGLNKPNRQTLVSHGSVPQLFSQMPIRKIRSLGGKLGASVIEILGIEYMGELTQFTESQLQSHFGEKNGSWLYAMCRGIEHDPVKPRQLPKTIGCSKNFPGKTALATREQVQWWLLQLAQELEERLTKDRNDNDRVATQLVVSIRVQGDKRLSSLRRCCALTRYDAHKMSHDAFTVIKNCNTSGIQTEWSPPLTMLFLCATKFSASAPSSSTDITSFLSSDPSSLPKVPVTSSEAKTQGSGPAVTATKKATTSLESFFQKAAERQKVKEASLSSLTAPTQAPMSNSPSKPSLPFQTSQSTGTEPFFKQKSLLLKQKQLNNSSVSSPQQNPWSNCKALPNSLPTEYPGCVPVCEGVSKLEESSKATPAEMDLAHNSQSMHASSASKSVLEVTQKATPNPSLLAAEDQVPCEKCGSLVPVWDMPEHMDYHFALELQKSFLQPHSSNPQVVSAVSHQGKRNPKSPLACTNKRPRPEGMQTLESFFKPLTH
Method in brief: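 Pol eta at 10 nM preincubated with compounds 15 min at room temperature; reaction started with fluorescent substrate (50 nM final) and read kinetically at 0 and 10 min.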
Potency means the concentration at half of the fitted maximal effect; tags describe the fitted curve by direction and shape.

Row | Structure (SMILES) | Potency
1 | O=C1/C(=C/c2ccccc2[N+](=O)[O-])COc2ccccc21 | inconclusive: 44.7 µM [inhibitor, partial curve, poor fit]
2 | Cc1nn(-c2ccccc2)c(C)c1/C=N/NC(=O)c1cc(-c2ccccc2)n[nH]1 | inconclusive: 25.1 µM [inhibitor, partial curve, poor fit]
3 | Cc1ccc(C(=O)NCC(=O)NCc2cc(=O)n(C)c(=O)n2C)cc1C | inactive
4 | O=C1/C(=C/C=C/c2ccco2)SC(=S)N1c1ccc(O)cc1 | active: 3.55 µM
5 | CC(=O)c1ccc(NC(=O)Cn2c3ccccc3c3nc(=O)cc(C)n32)cc1 | inconclusive: 79.4 µM [inhibitor, partial curve, poor fit]
6 | Cn1cc([N+](=O)[O-])c(C(=O)Nc2sc3c(c2C#N)CCC3)n1 | inconclusive: 31.6 µM [inhibitor, single point]
7 | Cc1cc(C(=O)NNC(=O)/C=C/c2ccco2)c(C)o1 | active: 2.24 µM
8 | CCOC(=O)C1CCc2sc(N)c(C#N)c21 (centres undefined) | inactive
9 | Cc1cc(NC(=O)CSCC(=O)Nc2nc3ccccc3s2)no1 | inactive
10 | COCCn1c(C)cc(C(=O)COC(=O)c2ccc3c(c2)NC(=O)CS3)c1C | inconclusive: 28.2 µM [inhibitor, single point]
11 | Cc1nn(CC(=O)Nc2ccc3c(c2)oc2ccccc23)c(=O)c2ccccc12 | inconclusive: 44.7 µM [inhibitor, partial curve]
12 | CCCCCn1c(-c2ccc(OC)c(OC)c2)nc2ccccc21 | inactive
13 | CN(C)S(=O)(=O)c1cccc(N=c2scc(-c3ccc4c(c3)NC(=O)CO4)n2CC2CCCO2)c1 (centres undefined) | inconclusive: 3.16 µM [inhibitor, partial curve, poor fit]
14 | O=C(Nc1ccc2c(c1)OCCO2)C1CCCN(S(=O)(=O)c2cccs2)C1 (centres undefined) | inconclusive: 79.4 µM [inhibitor, partial curve, poor fit]
15 | COc1ccc(-n2c(O)c(/C=N/NS(=O)(=O)c3cc(C)ccc3C)c3ccccc3c2=O)cc1OC | inconclusive: 50.1 µM [inhibitor, partial curve]
16 | COc1ccc(CC(=O)NCC(=O)N/N=C/c2c[nH]c3ccccc23)cc1 | inconclusive: 56.2 µM [inhibitor, partial curve, poor fit]
17 | C=CCn1c(CCCOc2ccc(Cl)cc2Cl)n[nH]c1=S | inactive
18 | CC(=O)c1ccc(NC(=O)CN2CCN(CC(=O)Nc3ccc(C(C)=O)cc3)CC2)cc1 | inactive
19 | COc1ccc(C2=NO[C@@H]3C(=O)N(C4CCCCC4)C(=O)[C@H]23)cc1OC | inconclusive: 39.8 µM [inhibitor, partial curve, poor fit]
20 | CCOc1cc(/C=C2/C(=O)ON=C2C)cc(Br)c1O | inconclusive: 20 µM [inhibitor, partial curve, poor fit]
21 | CCCc1[nH][nH]c(=O)c1C(c1ccc(Br)cc1)C(C#N)C#N (centres undefined) | inactive
22 | COc1ccccc1/C=C/C(=O)OCC(=O)NCc1ccco1 | inconclusive: 17.8 µM [inhibitor, partial curve]

Row | Structure (SMILES) | Potency
23 | O=C(Cn1cnc2ccccc21)N/N=C/C(Br)=C/c1ccccc1 | inconclusive: 28.2 µM [inhibitor, partial curve, poor fit]
24 | Cc1cc(=O)[nH]c(-n2[nH]c3c(c2=O)CCCC3)n1 | inactive
25 | COC(=O)c1sc(NC(=O)/C=C/c2ccccc2Cl)nc1C | inconclusive: 89.1 µM [inhibitor, partial curve, poor fit]
26 | CC1=NN(C(=O)c2ccncc2)C(=O)C1N=Nc1ccc2ccccc2c1 (centres undefined) | inconclusive: 31.6 µM [inhibitor, full curve]
27 | CCc1ccccc1NC(=O)C(=O)NCC(c1cccnc1)N1CCN(c2ccccc2F)CC1 (centres undefined) | inactive
28 | COc1cc2c(cc1OC)-c1c(OC)c(OC)cc3ccnc(c13)C2=O | inconclusive: 7.08 µM [inhibitor, partial curve, poor fit]
29 | Cc1ccc(NC(=O)C2CCC(CNS(=O)(=O)c3csc(C(N)=O)c3)CC2)cc1Cl (centres undefined) | inactive
30 | CCCSc1nc2sc3c(c2c(=O)n1Cc1ccccc1)CC(C)(CC)OC3 (centres undefined) | inactive
31 | COc1ccc(C2CC(O)(c3ccccc3)Oc3cc(OC)ccc32)cc1 (centres undefined) | inconclusive: 79.4 µM [inhibitor, partial curve, poor fit]
32 | CCn1ccnc1CN(C)Cc1nc(-c2cccc(Cl)c2)no1 | inactive
33 | CCOC(=O)c1ccccc1NC(=O)CSc1nccn1C | inconclusive: 89.1 µM [inhibitor, partial curve, poor fit]
34 | CC(=O)c1c(C)[nH]c(C(=O)Nc2cccc(S(=O)(=O)N3CCOCC3)c2)c1C | inconclusive: 89.1 µM [inhibitor, partial curve, poor fit]
35 | Cc1cccc(C(=O)Oc2ccc3ccc(O)cc3c2)c1 | inactive
36 | COC(=O)c1cccc2c(C(=O)O)cc(-c3ccccc3)nc12 | inconclusive: 22.4 µM [inhibitor, partial curve, poor fit]
37 | Cn1cccc1CC(=O)N/N=C/c1ccco1 | inactive
38 | CCc1sc(Nc2cccc(C)c2C)nc1-c1cc2cccc(OC)c2oc1=O | inactive
39 | O=c1[nH]c(/C=C\c2cccc(Cl)c2)nc(O)c1[N+](=O)[O-] | inconclusive: 35.5 µM [inhibitor, partial curve, poor fit]
40 | COC(=O)c1sc(NC(=O)c2cc(-c3ccccc3)nc3ccccc23)c(C#N)c1C | inconclusive: 14.1 µM [inhibitor, partial curve]
41 | Cc1ccc2cc3c(N)c(C(=O)Nc4c(C)[nH]c(=O)[nH]c4=O)sc3nc2c1 | inconclusive: 22.4 µM [inhibitor, full curve]
42 | Cc1nc(-c2cccnc2)sc1CCNS(=O)(=O)c1ccc(F)cc1 | inactive
43 | O=C(CCCc1ccccc1)Nc1ccc(S(=O)(=O)N2CCOCC2)cc1 | inconclusive: 79.4 µM [inhibitor, partial curve, poor fit]
44 | CN1CCN(S(=O)(=O)c2ccc(N3CCc4ccccc4C3)nc2)CC1 | inactive
